Data reported in article PMC4336329 (PLoS ONE, 2015).
Screen size: about 310,000 compounds; about 14,000 (4.5%) showed an effect of 50% or more. Effects have a minus sign here. The list shows a part of the results.

molecular target: human ether-à-go-go-related gene (hERG) potassium channel (human, UniProt Q12809); assay: primary screen, population patch clamp on CHO cells stably expressing hERG
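Note: peak tail current of the secondary pulse compared with the same well before compound.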

human ether-à-go-go-related gene (hERG) potassium channel, sequence (Q12809 whole entry, looked up): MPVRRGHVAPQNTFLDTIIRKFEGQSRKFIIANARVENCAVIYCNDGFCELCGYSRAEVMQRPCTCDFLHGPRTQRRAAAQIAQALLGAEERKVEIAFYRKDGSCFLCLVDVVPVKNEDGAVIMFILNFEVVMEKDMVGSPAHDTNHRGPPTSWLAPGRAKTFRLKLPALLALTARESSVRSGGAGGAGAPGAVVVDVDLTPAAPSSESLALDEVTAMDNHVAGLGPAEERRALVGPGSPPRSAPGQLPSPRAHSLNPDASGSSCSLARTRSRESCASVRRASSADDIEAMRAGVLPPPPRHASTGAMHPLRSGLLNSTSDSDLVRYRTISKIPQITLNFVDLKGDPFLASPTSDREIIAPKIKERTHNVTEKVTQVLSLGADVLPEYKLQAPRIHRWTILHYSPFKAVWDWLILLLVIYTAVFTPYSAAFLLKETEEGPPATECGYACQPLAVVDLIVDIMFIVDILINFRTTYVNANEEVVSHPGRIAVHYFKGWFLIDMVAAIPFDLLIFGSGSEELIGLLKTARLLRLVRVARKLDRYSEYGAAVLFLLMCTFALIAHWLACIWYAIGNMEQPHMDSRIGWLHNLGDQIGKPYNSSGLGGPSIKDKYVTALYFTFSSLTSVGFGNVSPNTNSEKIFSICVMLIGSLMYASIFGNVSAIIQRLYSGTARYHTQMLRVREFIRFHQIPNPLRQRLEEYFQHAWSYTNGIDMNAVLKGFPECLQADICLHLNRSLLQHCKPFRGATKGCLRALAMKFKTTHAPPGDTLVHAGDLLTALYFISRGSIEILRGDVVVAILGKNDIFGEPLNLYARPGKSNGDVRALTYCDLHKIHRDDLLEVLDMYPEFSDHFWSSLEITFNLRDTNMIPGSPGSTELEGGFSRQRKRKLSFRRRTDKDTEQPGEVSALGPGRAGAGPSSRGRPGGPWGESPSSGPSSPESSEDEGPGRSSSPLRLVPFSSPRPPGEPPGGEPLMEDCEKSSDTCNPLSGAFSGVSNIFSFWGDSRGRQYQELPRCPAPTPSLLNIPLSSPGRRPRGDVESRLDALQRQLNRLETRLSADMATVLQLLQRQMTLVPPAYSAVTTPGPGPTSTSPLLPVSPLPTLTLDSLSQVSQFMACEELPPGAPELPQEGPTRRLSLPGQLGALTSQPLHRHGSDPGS

| Compound | hERG current change (%, negative = inhibition) at 10uM [%] |
| --- | --- |
| NC(=O)c1nc(-c2ccco2)nc2c1[nH]c(=O)n2-c1ccc(Cl)c(Cl)c1 | -9.13 |
| Cc1cc(C(=O)N/N=C/c2ccc[nH]2)n[nH]1 | 21.2 |
| COc1ccccc1N1CCN(C(=O)Cn2nnc(-c3ccncc3)n2)CC1 | -11.9 |
| Cc1c(N=C2SC(CC(=O)Nc3ccccc3)C(=O)N2CCN2CCOCC2)c(=O)n(-c2ccccc2)n1C (stereo not shown) | 6.42 |
| COC(=O)C(CC(C)C)Oc1ccc2c(C)cc(=O)oc2c1 (stereo not shown) | -7.75 |
| COc1ccc(NC2CCCN(C(=O)c3ccc4nccnc4c3)C2)cc1OC (stereo not shown) | 16.4 |
| Cc1ccc(C2(c3noc(CN(C)CC4CCCCO4)n3)CCCC2)cc1 (stereo not shown) | 5.87 |
| Clc1ncc(Cn2cccn2)s1 | 10.5 |
| COc1ccc(S(=O)(=O)N2CC3CCCN3c3cc(C(F)(F)F)ccc32)cc1 (stereo not shown) | 16.5 |
| O=C(O)C(=O)O.O=[N+]([O-])c1ccccc1CNC1CCCCCC1 | 14 |
| O=C(NCCC(=O)N1CCCCCCC1)c1ccc(Br)cc1 | -12.9 |
| COc1ccc(S(=O)(=O)NNC(=O)c2cccs2)cc1 | 1.37 |
| Cl.O=[N+]([O-])c1ccccc1/C=N/NC1=NCCCCC1 | -39.3 |
| O=C(NCC(=O)N(c1ccccc1)C(C(=O)NC1CCCCC1)c1cccnc1)c1cccs1 (stereo not shown) | 7.14 |
| CC(C)Cn1cc(C(=O)NCCCN2CCC(C)CC2)c2c3ccccc3n(C)c2c1=O | -43.1 |
| CCc1cccc(C)c1NC(=O)CSc1nnc(C)o1 | -25.4 |
| Cc1ccc(S(=O)(=O)Nc2ccc3c(c2)C(=O)NC3=O)cc1[N+](=O)[O-] | 19.6 |
| Cc1cnc(=O)[nH]c1SCc1ccc([N+](=O)[O-])cc1 | -70.1 |
| CCS(=O)(=O)N1Cc2ccccc2CC1C(=O)Nc1cccc(OC)c1 (stereo not shown) | 14.3 |
| O=C(CSc1nc2ccccc2o1)Nc1ccccc1N1CCOCC1 | -16.6 |

| Compound | hERG current change (%, negative = inhibition) at 10uM [%] |
| --- | --- |
| CC(C)C(=O)Nc1c2c(nn1-c1ccc(F)cc1)CS(=O)(=O)C2 | 14.7 |
| O=C(CCc1nnc2ccc(NCc3ccccc3)nn12)NC1CCCCC1 | 20.6 |
| Cc1cc(Br)ccc1SCC(=O)OCC(=O)Nc1ccc2[nH]c(=O)[nH]c2c1 | 12.7 |
| O=C(CCSCc1ccccc1F)NCCc1ccccc1 | 2.33 |
| Cc1nnc2ccc(Oc3ccc(-c4ccccc4)cc3)nn12 | -5.63 |
| COCCNC(=O)c1ccc2c(c1)ncn2-c1ccc(F)c(F)c1 | -33.2 |
| Cc1cc(Nc2cccc(F)c2)nc(-c2ccccc2O)n1 | 11.5 |
| COc1ccc(Cc2nc3ccc(C(=O)NCCn4ccnc4C)cc3o2)cc1OC | -36.5 |
| CCN(CC)C(=O)CCS(=O)(=O)c1cccc2nonc12 | 8.52 |
| CC1CCC2(CC1)OCC1(CCC3(COC4(CCC(C)CC4)OC3)C1=O)CO2 (stereo not shown) | 12.5 |
| Cc1ccc(OCC(=O)NCCCNC(=O)c2cnccn2)cc1C | 4.76 |
| O=C(NC1CCCCC1)C(c1ccc(F)cc1)N(Cc1ccc2c(c1)OCO2)C(=O)c1cnsn1 (stereo not shown) | -8.38 |
| Cc1cc2ncc(S(C)(=O)=O)c(N)n2n1 | 13.5 |
| CN=C(Nc1ccc(Br)cc1)SC1CC(=O)N(c2ccc(OC)cc2)C1=O (stereo not shown) | 19.5 |
| Cc1cc(C)c2c(=O)n(CC(=O)Nc3cccc(F)c3)sc2n1 | -16.1 |
| CCCOc1ccc(-c2nc[nH]c2[N+](=O)[O-])cc1 | 27.3 |
| NC(=O)CC(O)c1cccc(Cl)c1 (stereo not shown) | 9.91 |
| Cc1ccc(CNC(=O)C2CCC(=O)N2Cc2ccc(C)cc2)cc1 (stereo not shown) | -7.57 |
| Cc1cc(C)cc(NC(=O)COc2coc(CN3CCN(c4ccccc4)CC3)cc2=O)c1 | -5.82 |
| CCN(CC)S(=O)(=O)c1ccc(Cl)c(NC(=O)c2cc(Cl)ccc2Cl)c1 | 6.24 |

| Compound | hERG current change (%, negative = inhibition) at 10uM [%] |
| --- | --- |
| COc1cc(C)c(C(C)C)cc1S(=O)(=O)n1ccnc1 | 5.54 |
| CC(=O)Nc1ccc(NC(=O)CSc2ncc(C(=O)Nc3ccc(Cl)cc3)c(=O)n2C)cc1 | -0.502 |
| OCn1c2ccccc2c2ccccc21 | 7.26 |
| C=CCn1c(C)cc(C(=O)CSc2nnc3c(Cl)cc(Cl)cn23)c1C | -21.8 |
| CNC(=O)c1ccc(-c2ccc(Cl)c(Cl)c2)s1 | 11.8 |
| CCNc1nc(NCC)n2c(SC(C(=O)Nc3cc(Cl)cc(Cl)c3)c3ccccc3)nnc2n1 (stereo not shown) | 13.3 |
| CCOc1ccccc1NC(=O)CN(Cc1ccccc1)S(C)(=O)=O | -31.5 |
| COc1ccc(-c2cc(C(=O)Nc3cc(C)on3)c3ccccc3n2)c(OC)c1 | 4.62 |
| Cc1ccc2[nH]c(=O)c(CN(Cc3cccs3)C(=S)NCC3CCCO3)cc2c1 (stereo not shown) | 8.11 |
| Cc1noc(C)c1CCC(=O)O | 20.7 |
| O=C(NC1CC1)C1=C[C@H](C2CC2)C[C@H](OCCCCO)O1 | 16.8 |
| O=c1cc(CN2CCOCC2)c2cc(Cl)ccc2o1 | -0.546 |
| CCN(CC)Cc1c(C(=O)N/N=C/c2c(Cl)cccc2Cl)nnn1-c1nonc1N | 11.8 |
| COCCN1CCN(C(=O)c2ccc3oc(CCc4ccccc4)nc3c2)CC1 | -30.1 |
| COCCCNC(=S)NCCNc1nc2cc(C)c(C)cc2cc1C#N | -2.23 |
| CCCS(=O)(=O)c1c(S(=O)(=O)CCC)c2cc(CC)ccn2c1C(=O)OC | -29.2 |
| COC(=O)/C(=C/c1c[nH]c2ccccc12)NC(C)=O | 6.31 |
| Cc1ccc(S(=O)(=O)N2CCCCC2)cc1NC(=O)c1cc(=O)[nH]c2ccccc12 | -6.61 |
